Data on 53 compounds can be found in ChEMBL document CHEMBL4888484, “Replenishing the malaria drug discovery pipeline: Screening and hit evaluation of the MMV Hit Generation Library 1 (HGL1) against asexual blood stage Plasmodium falciparum ,using a nano luciferase reporter read-out” (2022).

The campaign covered roughly 150,000 compounds. About 540 (0.36%) showed an effect of 50% or more. The list shows a part of the results.

The experiment has as its system Plasmodium falciparum. As to the kind of experiment: Primary screen in NF54 nanoGlo assay, in single point, at 2uM, 72h; a lower Z score goes with more inhibition. In kind it is functional, Erythrocyte. The note with it: timepoint 72 hour.
In general, % Inhibition refers to the change of the read-out against control, counted positive when it falls. In the case of `CN1C2CCC1CN(c1cncc(Br)c1)CC2` (stereo unspecified), the “% Inhibition” value is listed as -6% and the Z score turned out to be 0.81.

On to `O=C1N=C(O)N(c2ccc(Cl)cc2)C(=O)C12Cc1ccccc1N1CCN(c3ccccc3)CC12` (stereo unspecified), for which the “% Inhibition” value was found to be 14% and the Z score is -1.77.

As for `Cc1ccc(NC(=O)N2CC(=O)N(CC(=O)N3CCC4(CC3)OCCO4)c3ccccc32)cc1`, the “% Inhibition” value is -3% and the Z score came to 0.46.

For `COc1ccc(NC(=O)CN2CCCNS2(=O)=O)cc1`, the “% Inhibition” value is -12% and the Z score came to 1.56.

`Cc1ccc(-c2cn(CC(=O)Nc3cccc(C)c3)c(=O)o2)cc1`: the “% Inhibition” value was -12% and the Z score amounted to 1.18.

Regarding `Cc1nnc(CN2CC=C(c3ccc(Cl)c(Cl)c3)CC2)n1C`, the “% Inhibition” value is listed as -3% and the Z score is given as 0.47.

Turning to `CCN1CCC2C(C1)OCCN2C(=O)Cc1cccnc1` (stereo unspecified), the “% Inhibition” value is 1% and the Z score is -0.12.

Consider `Cc1ccc([C@H](C)Nc2cc(C)nc(N)n2)cn1`, for which the “% Inhibition” value is recorded as -8% and the Z score turned out to be 1.15.

Consider `C[C@H]1COC2(CCN(C(=O)c3cc4c(OC(F)(F)F)cccc4[nH]3)CC2)O1`, for which the “% Inhibition” value was found to be 6% and the Z score was -0.84.

In the case of `CCc1cccc(N(C(=O)c2ccc(NC(C)=O)cc2)C2(C(=O)NCc3ccccc3)CCN(C(C)=O)CC2)c1`, the “% Inhibition” value worked out at 0% and the Z score came out at 0.

Regarding `COc1ccccc1[C@@H]1CN(C(=O)c2ccc(C)[nH]c2=O)[C@@H]2C3CCN(CC3)[C@@H]21`, the “% Inhibition” value amounted to 5% and the Z score is -0.56.

With `Cc1ccc(CN2CCCC23CCN(c2ccccn2)CC3)o1`, the “% Inhibition” value was -14% and the Z score stood at 2.71.

Take `Cc1cnn(C2CCCN(C(C)C(=O)Nc3ccc(C#N)c(Cl)c3)C2)c1` (stereo unspecified): the “% Inhibition” value is recorded as -2% and the Z score is 0.21.

As for `Cc1c(C)[n+]([O-])c([C@@H](c2ccc(O)cc2)C2C(=O)N(C)C(=O)N(C)C2=O)n1Cc1ccccc1`, the “% Inhibition” value turned out to be 5% and the Z score is -0.67.

In the case of `Clc1ccc(-n2nnnc2C2(NC3CCCCC3)CCCCC2)cc1`, the “% Inhibition” value was found to be 6% and the Z score is given as -0.79.

With `O=C1NC(=O)C(Cc2cccs2)C(=O)N1`, the “% Inhibition” value is on record as 9% and the Z score is reported as -1.6.

Take `CCc1cc(N2CC3(CCN3Cc3ccccc3)C2)ncn1`: the “% Inhibition” value is 1% and the Z score is listed as -0.07.

Turning to `COc1ccc(CNc2ccc3oc(=O)[nH]c3c2)c(OC(C)C)c1`, the “% Inhibition” value is -9% and the Z score is 1.21.

As for `C[C@@H](C(=O)Nc1ccccc1OC(F)F)N1CC=C(c2cccnc2)CC1`, the “% Inhibition” value is recorded as -2% and the Z score amounted to 0.37.

Consider `COCc1nn(Cc2ccc(OC(F)F)cc2)c(=O)o1`, for which the “% Inhibition” value was -5% and the Z score was 0.98.

In the case of `CN1C[C@H]2CC[C@@H](C1)N(C(=O)c1cc(C(C)(C)C)nc(=O)[nH]1)C2`, the “% Inhibition” value is given as 3% and the Z score was -0.55.

Take `CC(C)CCCN1C(=O)NC(=O)[C@@]2(Cc3c(ccc4ccccc34)N(C)C2)C1=O`: the “% Inhibition” value was -1% and the Z score is 0.12.

As for `O=C(O)[C@@]12COc3ccccc3[C@@H]1CN(CCCC(F)(F)F)C2`, the “% Inhibition” value was -1% and the Z score was 0.18.

For `CCn1cc(C(=O)NCc2ccc(N3CCNCC3)c(F)c2)cn1`, the “% Inhibition” value is -7% and the Z score turned out to be 0.95.

As to `CCn1cc(CNc2nc(C(F)(F)F)cs2)c(=O)[nH]c1=O`, the “% Inhibition” value amounted to 26% and the Z score is -2.97.

As for `O=C(Nc1ccncc1)[C@@H]1Cc2[nH]cnc2C2(CCCCC2)N1`, the “% Inhibition” value is given as -6% and the Z score is on record as 0.88.

For the compound `COc1ccc(C(=O)N2CCN3CCC2CC3)c(OC)c1`, the “% Inhibition” value is -6% and the Z score is listed as 0.89.

With `O=C(c1cc(F)cc(F)c1)N1CCC2(CC1)N(c1ccccc1)C(=O)CS2(=O)=O`, the “% Inhibition” value is reported as -15% and the Z score is on record as 2.33.

As to `CCN(CC)C(=O)Oc1ccc2c(ccn2Cc2ccc(C#N)cc2)c1-c1ccc(F)c(Cl)c1`, the “% Inhibition” value is listed as -5% and the Z score came to 0.8.

Take `Cc1ccc([C@H]2CN(C(=O)Cc3ccc4[nH]c(C)nc4c3)C[C@@H]2N(C)C)cc1`: the “% Inhibition” value is reported as -10% and the Z score came out at 0.97.

As for `CC(C)Cn1ncnc1CN1CCC[C@H](c2n[nH]c(=O)o2)C1`, the “% Inhibition” value was 13% and the Z score was -1.64.

With `CCN(CCn1cccn1)S(=O)(=O)c1ccc2oc(=O)[nH]c2c1`, the “% Inhibition” value is listed as -15% and the Z score is reported as 2.93.

On to `CC(=O)OC1(c2ccccc2)CCCCC1CN(C)C` (stereo unspecified), for which the “% Inhibition” value is reported as -7% and the Z score turned out to be 1.17.

As for `CCNC1(c2nnnn2-c2cccc(C)c2)CCCCC1`, the “% Inhibition” value was -3% and the Z score stood at 0.39.

Regarding `Cc1nnc(CN2CC3CCC(C2)O3)o1`, the “% Inhibition” value was found to be 4% and the Z score is reported as -0.49.

As to `O=C(c1ccccc1)N1C[C@@H]2C[C@H](C1)c1c(-c3cncnc3)ccc(=O)n1C2`, the “% Inhibition” value was -11% and the Z score stood at 2.13.

`CCOc1ccc(CC2(CN3CCc4cc(OC)c(OC)cc4[C@@H]3C)C(=O)N(C)C(=O)N(C)C2=O)cc1`: the “% Inhibition” value is listed as -1% and the Z score was 0.14.

Regarding `N[C@@H](Cc1c[nH]cn1)c1ncnn1C1Cc2ccccc2C1`, the “% Inhibition” value was found to be 4% and the Z score is -0.55.

On to `C[C@@H](CNC(=O)N1CCN2CCC1CC2)c1ccc(F)cc1F`, for which the “% Inhibition” value is recorded as -6% and the Z score is on record as 0.88.

With `CC(C)(C)OC(=O)N1CCN2C[C@@H](F)C[C@H]2C1`, the “% Inhibition” value is reported as -5% and the Z score is 0.63.

Take `CN1CC[C@]2(CCN(C(=O)Nc3cccc(-c4ccon4)c3)C2)C1`: the “% Inhibition” value is given as -8% and the Z score is listed as 1.44.

For `Cc1nc(-c2nn(CCN3CCCCC3)c3ccccc23)no1`, the “% Inhibition” value is recorded as -3% and the Z score is 0.41.

For `O=c1[nH]c2cc(Br)c(S(=O)(=O)N3CCCO3)c(Cl)c2o1`, the “% Inhibition” value is 4% and the Z score is on record as -0.74.

Take `COC[C@](C)(NC(=O)C1C(C)(C)C1(C)C)C(=O)O`: the “% Inhibition” value was -18% and the Z score is 2.42.

`CC(C)(C)[C@@H](N)Cc1ccc(Cl)cc1`: the “% Inhibition” value is given as -14% and the Z score turned out to be 2.23.

For the compound `C[C@@H](Cn1cccn1)NCc1nnnn1C1CC1`, the “% Inhibition” value is reported as -1% and the Z score is 0.1.

As to `Cn1cc(CCN2CCN(C(=O)COc3ccc(Cl)cc3Cl)CC2)nn1`, the “% Inhibition” value is given as -6% and the Z score is 1.06.

For the compound `CC(C)N1C[C@@H]2OCC(=O)N(Cc3ccncc3)[C@@H]2C1`, the “% Inhibition” value is listed as 14% and the Z score is -1.61.

Consider `C[C@@H](Cc1cnccn1)NCc1c(C(=O)N2CCCCCCC2)nc2ccc(Cl)cn12`, for which the “% Inhibition” value was -18% and the Z score was 1.96.

Turning to `OC1CCN(CCc2cc(Cl)c3c(c2)OCCCO3)CC1`, the “% Inhibition” value is reported as -7% and the Z score turned out to be 1.28.

Regarding `Cc1nc(Cn2nc(C(C)(C)C)oc2=O)oc1C`, the “% Inhibition” value came out at 35% and the Z score is -0.83.

As for `Cc1csc(C[C@H]2CCN(C(=O)c3ccc4oc(=O)[nH]c4c3)C2)n1`, the “% Inhibition” value is -16% and the Z score turned out to be 2.08.

Consider `CC1C(=O)CCC1CC(=O)N1CCC(c2n[nH]c(=O)o2)CC1` (stereo unspecified), for which the “% Inhibition” value is -3% and the Z score is reported as 0.51.
